The values below come from the supplement of paper PMC11417369.

± gives the standard deviation of the averaged measurements. The list shows a part of the results.

The assay relates to PfAP2-I AP2 domain 3 (GST-tagged). Kind of assay: gcPBM binding intensity (ln(normalized median fluorescence intensity)); higher = stronger DNA binding. The method, boiled down:
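The highest Masliner-normalised natural-log median intensity across replicate spots of either probe orientation is reported as binding intensity. GST-tagged P. falciparum DNA-binding domains expressed in E. coli were applied for 1 h to an Agilent 4 × 180k array of primer-extended double-stranded 36-bp intergenic genomic probes plus negative controls, and bound protein was detected with Alexa488 anti-GST antibody and scanned at 488 nm.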
For the sequence “TAGATACATACACGCACACACATATATATATATATA [CACACA_site12]”, the “gcPBM binding intensity (ln)” value was found to be 9.41 ± 0.56.
For “CCACATTAAAAAAAAACACACATATATTATAGATAT [CACACA_site6662]” the value was 7.57 ± 0.52; for “AATGTACGTTTTATAACACACACACTAATAAAAAAA [CACACA_site9286]”, 8.23 ± 0.36; for “ATCTTCAAAAATATTAGTACACATGTATCATGAATT [XGTACX_site3872]”, 8.245 ± 0.064.
Next, “TACTAAGAATTAATATAACAAAATAAAAAAAAAAAA [XGTACX_negctrl_site346]”: 7.93 ± 0.59; “ATACAGATATATAATACACACATAAATGTAACATTT [CACACA_site5864]”: 7.86 ± 0.47.
For “TGTATGTATAAAAACGCATGTATGTATTTTACAATA [TGCATGCA_site767]” the value was 7.57 ± 0.61.
Take “ATGTATATATATATATGTACTAATTAGTAGTTTACG [XGTACX_site6272]”: the “gcPBM binding intensity (ln)” value was determined as 7.97 ± 0.26.
For the sequence “AAAATTAAAAATAACACACACATATATATATTTATA [CACACA_site2776]”, the “gcPBM binding intensity (ln)” value turned out to be 7.66 ± 0.34.
Next, “GATATTTTTTTCGAAAGTACAAAAAAAAATATTTCC [XGTACX_site4389]”: 8.06 ± 0.22; “ATATATATACCAAGTAGTACATTCTACAACTAATGT [XGTACX_site8653]”: 8.24 ± 0.57.
For “AAAATAAAAATACACATTTTTTTTTTTTTTTTTTTT [TGCATGCA_negctrl_site515]” the value was 9.37 ± 0.15; for “TTTTTTTTTGTTTACACACCCAAATCACATACATAT [CACACA_site4052]”, 8.31 ± 0.42; for “TTTTTTTTTTTTTTTGCACACTTGATTTGAGCTTAT [CACACA_site4042]”, 9.62 ± 0.38.
For the sequence “AAAAAAAACAGACACACACACATAAATATATATAAA [CACACA_site148]”, the “gcPBM binding intensity (ln)” value is 7.75 ± 0.54.
Regarding “TAAATAATTTATAAGTGTACTATTATTGCACGAATA [XGTACX_site7715]”, the “gcPBM binding intensity (ln)” value is 11.1 ± 0.57.
For “ATGATTTTTTCTGTATGTACATAAAAATAAAATTCT [XGTACX_site5698]” the value was 7.84 ± 0.28.
Next, “CATTAGGTCTTTTGTACATGCAAGTGTGTGCGTAAA [TGCATGCA_site255]”: 9.44 ± 0.51.
For “TTGTTTATTTTTTATTACTATAAAGATGTTATATAT [CACACA_negctrl_site1506]” the value was 7.71 ± 0.54.
For ATAATATCTTTATGTGTGCACATATATATATATATA, the “gcPBM binding intensity (ln)” value is 10.15 ± 0.035.
Next, “TATATAAATATATATGTACACACATATACATGTTGA [CACACA_site9022]”: 7.67 ± 0.26; “AAAATTTAATATAATGCACACATAAAAAAAAAAAAT [CACACA_site8425]”: 11.1 ± 1.
Next, “TATAATATAATATATGCACACAAATATGTATATATG [CACACA_site8664]”: 8.86 ± 0.085.
Next, AACTATATATAACTAGTGCAAAGACAATATTTTAAA: 9.355 ± 0.092; “TTCTTTAAAATAAATTGTACTAACATATATATATAT [XGTACX_site6045]”: 9.34 ± 0.8.
For the sequence “AAGAATAATAACAAATGTACTTATATAAAGTATTAT [XGTACX_site2336]”, the “gcPBM binding intensity (ln)” value stood at 7.7 ± 0.6.
Next, “TAATTAAATATTTTCCTACAATTAATAAGAAAAGGA [XGTACX_negctrl_site565]”: 7.48 ± 0.4.
For “TTTTCCTTTTTGGAATGTACACATATATATTAAATG [XGTACX_site4700]” the value was 7.53 ± 0.55; for “AAATATAATATATGCACACATACATACATATATATA [CACACA_site104]”, 9.41 ± 0.3.
Next, “TATTAAGAAGAAAATTCACACATTTGTACCTCTCTT [CACACA_site4822]”: 7.64 ± 0.34; “CAGCTCTTAAAAATTACACACATATACGCATATATA [CACACA_site3267]”: 7.62 ± 0.58; “TATAAATAGATATATACACACATGAAAATAAATAAA [CACACA_site7228]”: 7.63 ± 0.54.
“TTACAAAAATGTGGTTGTACACAAACAAAAAAAATA [XGTACX_site8506]”: the “gcPBM binding intensity (ln)” value amounted to 8.35 ± 0.29.
For the sequence “GAAAATAGCTAAAATACACACAATTAAAAGTTATTA [CACACA_site7614]”, the “gcPBM binding intensity (ln)” value is 7.43 ± 0.27.
For “TTTTTTTTTTTTTGGTTCACACTGAAAAGAGAGATA [GTGCAC_negctrl_site439]”, the “gcPBM binding intensity (ln)” value worked out at 8.1 ± 0.82.
For “TTTCAAACTGTTCTCACACACGAAATTAGAAATGAA [CACACA_site4509]” the value was 7.88 ± 0.27.
Next, “AAAACAAAATAGGGAACACACACATGTCAATATATA [CACACA_site8834]”: 7.75 ± 0.61; TTTTGTTATTTTGAAGTGCACTTTCCACTTAATATA: 10.8 ± 0.13; “CAATCATGGTTTTACACACACATGCATGTGAAAATT [CACACA_site4870]”: 7.87 ± 0.53.
As to “TCATGTTTTACAAAAACACACAAATGAATATAAACA [CACACA_site4775]”, the “gcPBM binding intensity (ln)” value was 7.92 ± 0.42.
Next, “TCGAATTTGGAAAGAAGTACATGAAGCCAACATATG [XGTACX_site5222]”: 7.88 ± 0.48; “AATAAATAAAAATTATGTACATATATAAAAAATACA [XGTACX_site8581]”: 7.95 ± 0.48.
Turning to “TATATACATAGACACCCACACACAAAAAAAAAAAAA [CACACA_site8186]”, the “gcPBM binding intensity (ln)” value is 8.01 ± 0.72.
With “AAAACATACCTATATACACACATATAAATATAAATA [CACACA_site6956]”, the “gcPBM binding intensity (ln)” value is 7.81 ± 0.38.
